Measured values reported in PubChem BioAssay AID540267 (National Center for Advancing Translational Sciences (NCATS), 2011).
In all, about 340,000 compounds went through this assay and about 530 (0.16%) were called active. Inconclusive means that the source gave no clear call. Such entries were picked first, then a sample of the others. Rule as the data show it: active = activity change below about -80%; inconclusive = between about -30% and that limit; inactive = weaker than that.

Assay: Small Molecules that selectively kill Giardia lamblia: qHTS;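 also: parasites exposed to compound for two days anaerobically before the ATP read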
Details: Giardia lamblia trophozoite viability; at 7.66 µM; stronger effect = lower value
Procedure, shortened: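 Luminescent ATP signal served as the viability read-out, measured 15-30 min after adding ATP detection reagent to trophozoites that had been incubated with compounds for 48 hrs at 37 deg C anaerobically at 100 cells/well.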
% is scaled to controls: 0 for no effect and ±100 for the full control effect.

SMILES | activity change
CCOc1ccc(N(CC(=O)NC2CCCC2)S(=O)(=O)c2c(C)[nH]c(=O)[nH]c2=O)cc1 | inconclusive: -30.9% [inhibitor]
COc1cccc2c1CCc1c-2nc2ccccc2c1C(=O)O | inconclusive: -46% [inhibitor]
CC(C)(C)c1ccc(C(=O)Nc2cccc(C(=O)N3CCOCC3)c2)cc1 | inconclusive: -47.8% [inhibitor]
Cc1cccc2nc(COc3ccc4ccccc4c3Br)cn12 | inconclusive: -36.5% [inhibitor]
O=C(CNC(=O)c1cc(Cl)cc([N+](=O)[O-])c1)OCC(=O)N1CCCCC1 | inconclusive: -31.7% [inhibitor]
COc1ccc(NC(=O)C(c2ccc(Cl)cc2)C(C)C)cn1 (centres undefined) | inconclusive: -46.1% [inhibitor]
CCCN1CCC(NCc2cn(C)nc2-c2ccc(Oc3ccccc3)cc2)CC1 | inactive: 30.9%
Cc1ccc(NC(=O)COc2ccccc2[N+](=O)[O-])nc1 | inactive: -28.1%
COc1ccccc1C1CCN(C(=O)c2cccc([N+](=O)[O-])c2)CC1 | inconclusive: -36% [inhibitor]
OCCNc1nc(NCCC2=CCCCC2)nc(N2CCOCC2)n1 | inactive: 15.9%
CC(C)Cn1c(SC(C)C(=O)Nc2ccc(N3CCOCC3)cc2)nc2ccccc21 (centres undefined) | inconclusive: -39.9% [inhibitor]
O=C1C(=O)C(c2cc(O)c(O)c(O)c2)Oc2cc(O)cc(O)c21 (centres undefined) | inactive: -25.3%
CCOc1ccc(Nc2nc(N)c3ccccc3n2)cc1 | inconclusive: -70.8% [inhibitor]
CC(C)NC(=O)N(C)C[C@H]1Oc2c(NC(=O)C3CCCCC3)cccc2C(=O)N([C@H](C)CO)C[C@@H]1C | inconclusive: -34.7% [inhibitor]
Clc1ccccc1CSC1=NCCCN1 | inactive: -5.32%
COc1ccccc1N(CC(=O)NC1CCCCC1)S(=O)(=O)c1cccs1 | inconclusive: -34.6% [inhibitor]
COc1ccc(CNS(=O)(=O)c2c(C)[nH]c(C)c2C(=O)N2CCCC2)cc1 | inconclusive: -39.7% [inhibitor]
NC(=O)c1cc([N+](=O)[O-])ccc1NCc1ccc(F)cc1 | inconclusive: -43.1% [inhibitor]
COc1cc(NCCCn2cnc3c(OCc4ccccc4)ncnc32)cc(OC)c1OC | inactive: -0.97%
O=C(O)c1ccc(N/N=C/C=C/c2ccc([N+](=O)[O-])o2)cc1 | inconclusive: -39.2% [inhibitor]
O=[N+]([O-])c1ccc(N2CCN(c3ccccc3)CC2)cc1 | inactive: -4.49%
COC(=O)[C@]1(Cc2ccccc2)N[C@H](CN(C)C(=O)c2ccccc2)[C@@H]2C(=O)N(C)C(=O)[C@@H]21 | inconclusive: -46.5% [inhibitor]
C=CCOC(=O)C1=C(C)NC(=O)NC1c1ccc(O)cc1 (centres undefined) | inconclusive: -54% [inhibitor]
COc1ccc(-n2c(C)cc(C(=O)COc3ccc(C)nc3[N+](=O)[O-])c2C)cc1 | active: -80.8%
CCOC(=O)c1cc([N+](=O)[O-])sc1NC(=O)CC | active: -85.9%

SMILES | activity change
C=CCc1ccccc1OCC(=O)NNC(=S)NCc1ccccc1 | inactive: -1.52%
CCNc1nc2nc3ccc(C)cn3c(=O)c2cc1C(=O)NCC1CCCO1 (centres undefined) | inconclusive: -37.8% [inhibitor]
CC(C)(C)OC(=O)CNC(=O)c1[nH]cnc1C(=O)N[C@@H](CCCCNC(=O)OC(C)(C)C)C(=O)OC(C)(C)C | inconclusive: -38.6% [inhibitor]
CC1CCCCC1NC(=O)COC(=O)CNC(=O)c1cccc(F)c1 (centres undefined) | inconclusive: -31.3% [inhibitor]
O=C(O)c1cccc(Nc2nc3ccccc3nc2NS(=O)(=O)c2cccs2)c1 | inconclusive: -39.1% [inhibitor]
CSc1ccc(CN(C)C(=O)CSCC(=O)Nc2cc(C)on2)cc1 | inconclusive: -32.3% [inhibitor]
O=C1c2ccccc2C(=O)c2c1cccc2N1CCOCC1 | inactive: -8.49%
CS(=O)(=O)N1CCC(C(=O)Nc2cccc(Br)c2)CC1 | inconclusive: -30.8% [inhibitor]
CCc1ccccc1NC(=O)CCNS(=O)(=O)c1cc(Br)cnc1N | inconclusive: -34.4% [inhibitor]
Cn1c(=O)c2sccc2n2c(CCCC(=O)NCc3ccco3)nnc12 | inactive: 25.7%
CC(OC(=O)CCc1nc2ccccc2c(=O)[nH]1)C(=O)Nc1ncc(Cl)cc1Cl (centres undefined) | inconclusive: -43.3% [inhibitor]
COC(=O)C(=C/C(C)=C/c1cccs1)C(=O)OC | inconclusive: -32.8% [inhibitor]
COc1ccc(CN2CCN(Cc3ccco3)CC2)cc1OC | inconclusive: -31.6% [inhibitor]
Cn1c(=O)c2c(nc(N3CCCCCC3)n2CC(O)COc2ccccc2)n(C)c1=O (centres undefined) | inactive: 13.4%
COc1ccc(/C=C(/C(=O)c2ccc(Cl)cc2Cl)n2cncn2)cc1 | inactive: -1.14%
COc1ccc(OC)c(N(C)S(=O)(=O)c2cc3c(cc2C)NC(=O)CO3)c1 | inconclusive: -36.5% [inhibitor]
COc1ccc(NC(=O)CSc2nc3ccccc3nc2N2CCCC2)cc1 | inactive: 10.3%
CCOC(=O)c1cnc(Nc2nc3ccccc3o2)nc1CSC(=S)N(CC)CC | inconclusive: -79.3% [inhibitor]
CCC(=O)c1ccc(N2CCN(C(=O)c3ccccc3F)CC2)c(F)c1 | inactive: 18.6%
COCCn1c(-c2ccc(C)cc2)nc2c(c(=O)c3ccccc3n2C)c1=O | inconclusive: -30.1% [inhibitor]
CCOc1ccc2nc(N3C(=O)CNC3=S)sc2c1 | inconclusive: -49.1% [inhibitor]
CC(C)C(=O)Nc1ccc(NC(=O)c2ccccn2)cn1 | inconclusive: -42.8% [inhibitor]
COc1ccc(N(Cc2ccccc2)S(=O)(=O)c2cccc(C(=O)Nc3ncccc3C)c2)cc1 | inconclusive: -41.5% [inhibitor]
O=C(Nc1cccc([N+](=O)[O-])c1)N(c1ccccc1)c1ccccc1 | inconclusive: -40.6% [inhibitor]
